{
  "source": "PubChem BioAssay AID1508642",
  "about": "(National Center for Advancing Translational Sciences (NCATS), 2021)",
  "note": "About 200 (0.47%) of roughly 43,000 compounds were called active. About 12% were inconclusive and are not listed. Calls follow the shape of the dose curve; as a rule, active = well fitted cell-killing curve with a large enough effect; inconclusive = small, poorly fitted or top-dose-only effect, or effect the other way; inactive = flat fitted curve, though single readings scatter. The list shows a part of the results. % is scaled to controls: 0 for no effect and ±100 for the full control effect.",
  "data": [
    {"assay": "Cell viability qHTS assay in S16 Pmp22-F2sN cells; also: nearly all actives have a fitted effect of over 65% in size", "settings": "S16 Pmp22-F2sN Schwann cells (luciferase reporters placed in the Pmp22 gene) viability, CellTiter-Glo, 24 h; series mostly up to 57.5 µM; activity change, negative = cytotoxicity: at the top concentration", "summary_of_the_method": "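Seed 500-1,000 S16 Pmp22-F2sN cells per well in phenol-red-free DMEM with 10% heat-inactivated FBS; pin-add 23 nL compound; incubate 24 h at 37C; add CellTiter-Glo, wait 15 min protected from light; read luminescence.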", "values": [
      {"smiles": "COc1ccc(CCNC(=O)C2CCCN(c3nc4c(C)cc(C)cc4s3)C2)cc1OC", "note": "(configuration not stated)", "activity change, negative = cytotoxicity": "inactive: 1.7%"},
      {"smiles": "Cc1nc(-c2ccc(C)c(S(=O)(=O)N3CCC(C(=O)NCc4ccc(Cl)cc4)CC3)c2)no1", "activity change, negative = cytotoxicity": "inactive: -1.29%"},
      {"smiles": "CCc1ccc2oc(C(=O)Nc3nonc3CC)c(C)c2c1", "activity change, negative = cytotoxicity": "inactive: -17.8%"},
      {"smiles": "COc1ccc(-n2ncc(C(=O)N3CCc4ccccc4C3)c2C2CCN(C(=O)OC(C)(C)C)CC2)cc1", "activity change, negative = cytotoxicity": "inactive: 0.0073%"},
      {"smiles": "Cc1oc2ncn(C)c(=O)c2c1C(=O)NCCCN1CCCC(C)C1", "note": "(configuration not stated)", "activity change, negative = cytotoxicity": "inactive: -1.72%"},
      {"smiles": "O=C(Nc1ccc(Br)cc1F)c1ncoc1-c1ccco1", "activity change, negative = cytotoxicity": "inactive: 2.15%"},
      {"smiles": "O=C(CSc1nccn1Cc1ccc(Cl)cc1)Nc1ccc2c(c1)OCCO2", "activity change, negative = cytotoxicity": "inactive: 3.14%"},
      {"smiles": "COc1cccc(C(c2c(O)cc(C)n(Cc3ccco3)c2=O)N2CCN(c3ccccc3)CC2)c1", "note": "(configuration not stated)", "activity change, negative = cytotoxicity": "inactive: 4.75%"},
      {"smiles": "COc1cc(Cl)c(C)cc1NC(=O)Cn1ncc2c([nH]c3ccccc32)c1=O", "activity change, negative = cytotoxicity": "inactive: 2.17%"},
      {"smiles": "COC(=O)c1cc2sccc2n1Cc1nc(-c2ccc(Cl)cc2)oc1C", "activity change, negative = cytotoxicity": "inactive: 2.54%"},
      {"smiles": "CCc1ccccc1NC(=O)c1ccc2c(c1)N(Cc1cc(C)ccc1C)C(=O)c1ccccc1S2(=O)=O", "activity change, negative = cytotoxicity": "inactive: -0.169%"},
      {"smiles": "CCOCCCn1c(SCC(=O)Nc2ccc(C)cc2)nc2ccccc2c1=O", "activity change, negative = cytotoxicity": "inactive: -7.13%"},
      {"smiles": "COc1ccc(CNC(=O)C(C)n2ccc3cc(S(=O)(=O)N4CCCC4)ccc32)cc1OC", "note": "(configuration not stated)", "activity change, negative = cytotoxicity": "inactive: -5.77%"},
      {"smiles": "Cc1cc(C)c(NC(=O)C2CCN(c3nnc(C)c4c(C)n(-c5ccccc5)nc34)CC2)c(C)c1", "activity change, negative = cytotoxicity": "inactive: -1.58%"},
      {"smiles": "O=C(NCc1ccc(F)cc1)c1c(O)nc2ccccn2c1=O", "activity change, negative = cytotoxicity": "inactive: 1.81%"},
      {"smiles": "Cc1cc(Nc2cccc(C(F)(F)F)c2)nc2ccc(NC(=O)c3ccc(=O)[nH]c3)cc12", "activity change, negative = cytotoxicity": "inactive: -0.46%"},
      {"smiles": "CCCCOc1cccc(NC(=O)CSc2nnc(C)s2)c1", "activity change, negative = cytotoxicity": "inactive: 0.0468%"},
      {"smiles": "CN(Cc1ccccc1)c1ncnc2onc(-c3ccc(F)cc3)c12", "activity change, negative = cytotoxicity": "inactive: -0.0838%"},
      {"smiles": "O=C(COc1ccccc1)Nc1nnc(S(=O)(=O)N2CCCC2)s1", "activity change, negative = cytotoxicity": "inactive: 3.99%"},
      {"smiles": "O=C(Nc1ccc2oc(-c3ccc4ccccc4c3)nc2c1)c1ccccc1F", "activity change, negative = cytotoxicity": "inactive: -3.43%"},
      {"smiles": "O=C(OCC1CCCO1)c1ccc2c(c1)N(Cc1ccccc1Cl)C(=O)c1ccccc1S2(=O)=O", "note": "(configuration not stated)", "activity change, negative = cytotoxicity": "inactive: 6.08%"},
      {"smiles": "COc1ccccc1NC(=O)C(Cc1ccccc1)NS(=O)(=O)c1ccc2c(c1)c(=O)n(C)c(=O)n2C", "note": "(configuration not stated)", "activity change, negative = cytotoxicity": "inactive: 13%"},
      {"smiles": "CCOc1ccc(-n2c(=O)c3c4c(sc3n(CC(=O)Nc3cccc(C(F)(F)F)c3)c2=O)CCCCC4)cc1", "activity change, negative = cytotoxicity": "inactive: 1.75%"},
      {"smiles": "CC(NC(=O)CCNS(=O)(=O)c1cccc2nsnc12)c1ccccc1", "note": "(configuration not stated)", "activity change, negative = cytotoxicity": "inactive: 8.62%"},
      {"smiles": "Cc1ccc2c(=O)cc(CSCC(=O)Nc3nnc(C)s3)[nH]c2c1", "activity change, negative = cytotoxicity": "inactive: -4.55%"},
      {"smiles": "COc1ccc(Br)cc1C1Sc2ccccc2NC2=C1C(=O)c1ccccc12", "note": "(configuration not stated)", "activity change, negative = cytotoxicity": "inactive: 3.27%"},
      {"smiles": "COc1ccc(OC)c(NC(=O)CSc2nc3ccccc3nc2N2CCCCC2)c1", "activity change, negative = cytotoxicity": "inactive: -6.92%"},
      {"smiles": "COc1ccc(NC(=O)COc2ccc(S(=O)(=O)NC3CCCCC3)cc2)cc1OC", "activity change, negative = cytotoxicity": "inactive: 20.5%"},
      {"smiles": "CCCC(=O)OCc1cnc(C)c2oc(=O)c(C(=O)Nc3ccccc3)cc12", "activity change, negative = cytotoxicity": "inactive: -1.61%"},
      {"smiles": "COc1ccc(NC(=O)C2CCC(CNS(=O)(=O)c3ccc(Br)s3)CC2)cc1OC", "note": "(configuration not stated)", "activity change, negative = cytotoxicity": "inactive: 17.5%"},
      {"smiles": "CCCCN(C)C(=O)C1CCC(CNS(=O)(=O)c2ccc(Cl)cc2)CC1", "note": "(configuration not stated)", "activity change, negative = cytotoxicity": "inactive: -11.3%"},
      {"smiles": "Cc1ccc(-c2nc3c(c(SCC(=O)Nc4ccccc4Cl)n2)Cc2c(CO)cnc(C)c2O3)cc1", "activity change, negative = cytotoxicity": "inactive: -7.28%"},
      {"smiles": "CCOC(=O)c1c(S(=O)(=O)NCC(=O)NCc2cccc(C)c2)c(C)n(C)c1C", "activity change, negative = cytotoxicity": "inactive: 7.21%"},
      {"smiles": "Nc1c(C(=O)Nc2ccc(C(=O)O)cc2)sc2nc3c(cc12)CCCC3", "activity change, negative = cytotoxicity": "inactive: 2.67%"},
      {"smiles": "COc1ccc(CCNC(=O)CSc2nc(-c3ccc(F)cc3)cc(C(F)(F)F)n2)cc1OC", "activity change, negative = cytotoxicity": "inactive: 2.82%"},
      {"smiles": "Cc1cccc(C(=O)Nc2nnc(S(=O)(=O)N(C)Cc3ccco3)s2)c1", "activity change, negative = cytotoxicity": "inactive: 1.1%"},
      {"smiles": "Cc1ccc(NC(=O)CN2C(=O)C3(SCC(=O)N3c3cccc(Cl)c3)c3ccccc32)cc1C", "note": "(configuration not stated)", "activity change, negative = cytotoxicity": "inactive: -6.86%"},
      {"smiles": "Cc1nn(-c2ccccc2)c2sc(C(=O)Nc3ccccc3Br)cc12", "activity change, negative = cytotoxicity": "inactive: 11.8%"},
      {"smiles": "COc1cc(OC)cc(C(=O)Nc2ccc(S(=O)(=O)Nc3ncccn3)cc2)c1", "activity change, negative = cytotoxicity": "inactive: 10.3%"},
      {"smiles": "O=C(NCc1ccc2c(c1)CCN2C(=O)c1ccc(Cl)cc1)c1cccc(F)c1", "activity change, negative = cytotoxicity": "inactive: 0.178%"},
      {"smiles": "Cc1ccc(NC(=O)CCS(=O)(=O)c2cc3c4c(c2)CCN4C(=O)CC3)c(C)c1", "activity change, negative = cytotoxicity": "inactive: -14.7%"},
      {"smiles": "O=C(Nc1nnc(S(=O)(=O)Nc2ccccc2)s1)c1ccccc1Cl", "activity change, negative = cytotoxicity": "inactive: -22.7%"},
      {"smiles": "CCc1noc(-c2ccc(N3CCCCC3C)c([N+](=O)[O-])c2)n1", "note": "(configuration not stated)", "activity change, negative = cytotoxicity": "inactive: -13.8%"},
      {"smiles": "CCOc1ccccc1NS(=O)(=O)c1ccc(-c2cnc(C3CC3)o2)cc1", "activity change, negative = cytotoxicity": "inactive: -17.5%"},
      {"smiles": "Cc1ccc(-c2csc(=Nc3ccc(F)cc3)n2Cc2ccc3c(c2)OCO3)cc1C", "activity change, negative = cytotoxicity": "inactive: -9.52%"},
      {"smiles": "COc1cccc(NC(=O)CC(C)S(=O)(=O)c2ccc3c(c2)NC(=O)CO3)c1", "note": "(configuration not stated)", "activity change, negative = cytotoxicity": "inactive: 8.47%"},
      {"smiles": "Cc1c(Cl)cccc1NC(=O)c1ncn(-c2ccccc2)n1", "activity change, negative = cytotoxicity": "inactive: -3.35%"}
    ]}
  ]
}
